Reference: PubChem BioAssay AID485344 (National Center for Advancing Translational Sciences (NCATS), 2010)
Hit rate of the full screen: of about 340,000 compounds, about 6,900 (2%) were called active. Rule as the data show it: active = inhibition above about 30%; inactive = below that, where a call was filed. The list shows a part of the results, in another mix than the full data. Where no call is shown, the source filed none.

molecular target: D(2) dopamine receptor (Homo sapiens) (UniProt P14416); test: HTS Assay for Allosteric Antagonists of the Human D2 Dopamine Receptor: Primary Screen for Antagonists; conditions: HEK293 TREx D2 cells, calcium flux, dopamine EC80; at 10 µM; stronger effect = higher value; also: 0% is about no effect
How it was run: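 Calcium mobilization kinetics were recorded at 1 s intervals in tetracycline-induced HEK293 T-REx D2 cells, first for 180 s after compound addition and then 180 s after EC80 dopamine.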

UniProt P14416, sequence (P14416 whole entry, looked up): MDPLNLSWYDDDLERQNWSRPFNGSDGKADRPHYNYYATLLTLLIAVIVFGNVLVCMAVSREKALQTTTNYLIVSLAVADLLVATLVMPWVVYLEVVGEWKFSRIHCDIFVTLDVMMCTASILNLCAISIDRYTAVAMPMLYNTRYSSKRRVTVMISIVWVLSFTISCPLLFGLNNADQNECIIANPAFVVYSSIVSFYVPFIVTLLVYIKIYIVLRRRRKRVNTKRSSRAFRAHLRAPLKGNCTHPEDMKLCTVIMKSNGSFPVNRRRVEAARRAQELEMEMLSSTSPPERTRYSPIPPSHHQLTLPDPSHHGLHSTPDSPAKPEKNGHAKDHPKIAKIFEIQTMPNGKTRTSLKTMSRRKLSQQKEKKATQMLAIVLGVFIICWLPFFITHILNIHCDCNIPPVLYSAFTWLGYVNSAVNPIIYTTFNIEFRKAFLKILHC

Compound	inhibition
COc1cccc(CN2C(=O)C3(SCC(=O)N3c3cc(C)cc(C)c3)c3ccccc32)c1 (centres undefined)	-0.0855%
CCC(C)NC(=O)c1ccccc1NC(=O)C1CCN(S(=O)(=O)Cc2ccccc2)CC1 (centres undefined)	-2.37%
Cc1ccc(-c2nnn(CC(=O)N(CC(=O)NCCC(C)C)c3ccc(F)cc3)n2)cc1	19.7%
Nc1c(Cl)ncnc1NCc1ccccc1	active: 56.1%
COc1ccc2nc(N(Cc3cccnc3)C(=O)c3ccco3)sc2c1	-4.38%
COc1ccc(-n2cc(C(=O)NCc3ccc(Cl)cc3)c3ccccc3c2=O)cc1	13.7%
CC1CN(C(=O)CCC(=O)NCc2cccs2)c2cc(Cl)ccc2O1 (centres undefined)	27.5%
Cc1ccc2c(c1)c1c(c(=O)n(-c3ccccc3)c(=O)n1CC(=O)NCCC1=CCCCC1)n2C	9.66%
COc1ccc(N(C(=O)c2ccccc2C)S(=O)(=O)c2ccc(C)cc2)cc1	-2.37%
CCOC(=O)c1cc(-c2ccc(C)cc2)n(CC(=O)Nc2ccc(OC)c(Cl)c2)c1C	-5.35%
COc1ccccc1C(=O)NCCN1CCN(c2ccccc2)CC1	active: 82.5%
Cc1ccc(CCNC(=O)c2cc3sccc3n2Cc2ccc(Cl)cc2)cc1	0.663%
COc1ccccc1Oc1nc2c(C)cccn2c(=O)c1/C=C(\C#N)c1nc2ccccc2[nH]1	-2.01%
Cc1nn(CC(=O)NCc2cccc(F)c2)c(=O)c2c(C)n(-c3ccc(Cl)cc3)nc12	-13.4%
COc1cccc(CNC(=O)CCc2nc(-c3ccc(C)cc3)no2)c1	5.07%
COc1ccccc1NC(=O)CSc1oc(-c2ccco2)nc1S(=O)(=O)c1ccc(Br)cc1	25.2%
COc1ccc(-c2nnc(SCC(=O)Oc3cccc(C)c3C)o2)cc1	0.845%
Cc1cc(C)c(S(=O)(=O)NCC(c2ccc(N(C)C)cc2)N2CCc3ccccc32)c(C)c1 (centres undefined)	-18.3%
Cc1ccccc1C(=O)NNC(=S)NC(=O)c1ccc(Cl)cc1Cl	active: 30.9%
COc1ccc(CNC(=O)Cc2coc3ccc(C(C)C)cc23)cc1	20.9%
CCOc1ccccc1CNC(=O)CSc1n[nH]c(-c2ccccc2Cl)n1	-4.24%
O=C(CN1C(=O)COc2ccc(S(=O)(=O)N3CCCCC3)cc21)NCc1ccccc1Cl	-3.08%

Compound	inhibition
Cc1cc(Nc2cc(Cl)ccc2C)n2nc(Cc3ccccc3)nc2n1	-11.5%
CCOC(=O)C1CCCN(C(=O)c2ccc3c(c2)N(Cc2cccc(Cl)c2)C(=O)c2ccccc2S3(=O)=O)C1 (centres undefined)	0.196%
CCCN(C(=O)Cn1c(=O)oc2cc(Cl)ccc21)c1ccc(C(C)C)cc1	-0.671%
CCC1CCc2c(sc(NC(=O)C3c4ccccc4Oc4ccccc43)c2C#N)C1 (centres undefined)	-17.3%
CC(C)c1ccc(NC(=O)CN2C(=O)c3cccc4cccc2c34)cc1	-4.4%
CCCCOc1ccc(Cc2c(COCC)[nH]c(=S)[nH]c2=O)cc1	active: 35.5%
CCc1ccc(NC(=O)COc2cccc(-n3cnnn3)c2)cc1	active: 36.9%
CCc1ccc(S(=O)(=O)c2cn(C)c3cc(OC)c(OC)cc3c2=O)cc1	-1.42%
CCOc1cccc(C2c3[nH]c4ccccc4c3CCN2C(=O)CCc2ccccc2)c1 (centres undefined)	-4.17%
O=C(NCc1noc2ccccc12)Nc1ccc(F)cc1F	1.65%
CCOC(=O)c1nc(Nc2ccccc2C)c2ccccc2n1	25.7%
Cc1cc(NC(=O)CCc2ccc(-c3ccccc3)o2)no1	active: 32.5%
CCN(CC)S(=O)(=O)c1ccc2nc(NC(=O)c3ccc(Br)o3)sc2c1	-14.1%
O=C(Nc1nc2ccc(Cl)cc2s1)c1ccc(S(=O)(=O)N2CCCC2)cc1	5.99%
CCN(CC)c1ccc(C(=O)N2CCC(c3ccncc3)CC2)cc1	-1.04%
O=C(NCC(c1ccc(Cl)cc1)N1CCCCC1)c1ccccc1 (centres undefined)	11.3%
CCCOc1ccc(C(=O)N(Cc2cccs2)C2CCS(=O)(=O)C2)cc1 (centres undefined)	16.5%
Cc1ccc(Cl)cc1N1CCN(C(=O)c2cn(C)c3ccc(S(=O)(=O)N4CCC(C)CC4)cc3c2=O)CC1	4.65%
COc1ccc(NCc2nc3ccccc3n2CCOc2ccc(C)cc2)cc1	-8.44%
O=C(Nc1cccc(-c2cccc(F)c2)c1)C1CCN(Cc2ccco2)CC1	active: 56.5%
Cc1ccc(CNC(=O)COCc2cc(-c3ccc4c(c3)OCO4)on2)cc1	0.788%
CCOc1ccc2cc(-c3nnc(Nc4ccccc4F)s3)c(=O)oc2c1	2.05%

Compound	inhibition
CCOc1ccc(S(=O)(=O)c2cn(Cc3ccc(C)cc3)c3ccc(OC)cc3c2=O)cc1	-11.9%
O=C(NCc1cccc(Br)c1)c1ccc(-n2cnc3cccnc32)cc1	3.84%
Cc1ccc(-n2ncc3c(N4CCC(C)CC4)ncnc32)cc1C	-7.55%
Cc1cccc(-c2noc(CNC(=O)c3ccc(C)cc3C)n2)c1	4.08%
COc1ccc(C(C(=O)NCc2ccccc2)N(C(=O)Cn2nnc3ccccc32)c2ccc(F)cc2)cc1 (centres undefined)	9.97%
Cc1ccc(NCc2nc3ccccc3n2CCOc2ccccc2C)cc1	0.786%
Nc1c(C(=O)Nc2ccccc2Cl)nnn1Cc1cccc(Cl)c1	5.22%
COc1cc(OC)cc(-c2nc3nc(C)c(CCC(=O)Nc4ccc(C)cc4)c(C)n3n2)c1	-20.1%
CCNc1nc2c(c(=O)n(C)c(=O)n2C)n1CC(O)COc1ccccc1 (centres undefined)	-12%
Cc1c(CCNS(=O)(=O)c2ccccc2)sc2nc(-c3ccc(Cl)cc3)nn12	7.14%
Cc1cc2c(cc1S(=O)(=O)CCC(=O)Nc1ccc(OC(F)(F)F)cc1)OCC(=O)N2	25.9%
O=C(CC1N=C2c3ccccc3N=C(SCc3ccc(Cl)cc3)N2C1=O)NC1CCCCC1 (centres undefined)	-5.65%
Cc1[nH]c2ccccc2c1NC(=O)CN1CCN(C(=O)c2ccco2)CC1	active: 61.1%
Cc1c2cnn(CC(=O)O)c(=O)c2c(C)n1Cc1cccc(Cl)c1	-1.65%
COc1ccc(NC(=O)Nc2cccc(C)n2)c(OC)c1	5.43%
Cc1cc(C)c(Cn2c(C)c(CNCc3ccccc3C)c(C(=O)O)c2C)c(C)c1	-1.6%
CCc1ccccc1NC(=O)C(=O)c1cc(C)n(-c2ccccc2F)c1C	8.4%
CC1CCCCN1C(=O)CSc1nc2ccccc2nc1Cc1ccc(Cl)cc1 (centres undefined)	8.88%
O=C(c1ccco1)N(Cc1cccnc1)c1nc2c(F)cccc2s1	-22.3%
CCN1C(=O)c2ccccc2Sc2ccc(NC(=O)Nc3ccc(C(C)=O)cc3)cc21	-1.1%
